Assay results taken from the supplement of paper PMC11417369.
± gives the standard deviation of the averaged measurements. This is one part of the list.

test system: PfAP2-I AP2 domain 3 (GST-tagged); experiment: gcPBM binding intensity (ln(normalized median fluorescence intensity)); higher = stronger DNA binding
In short: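 After 1 h on an Agilent 4 × 180k array of primer-extended double-stranded 36-bp intergenic genomic probes and negative controls, bound GST-tagged P. falciparum DNA-binding domains were detected with Alexa488 anti-GST antibody and scanned at 488 nm. The domains had been expressed in E. coli, and binding took place in 1× PBS with 1% milk, 0.2 mg/ml BSA, 0.5% salmon testes DNA and 0.03% Triton X-100. Binding intensity is the highest Masliner-normalised natural-log median intensity across replicate spots of either probe orientation.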

Sequence | gcPBM binding intensity (ln)
GCATCTCATTTGTGATGTACTATATTATCCGTTTTT [XGTACX_site7576] | 7.53 ± 0.64
ATCAACAAAACATACACACACATATATATATATATA [CACACA_site2989] | 9.29 ± 0.29
CATATCATTGATTATAGTACACATACCATTTTTTAT [XGTACX_site6572] | 7.9 ± 0.51
CACATAAAAAAATAAACACACATATGTATTTATATA [CACACA_site5718] | 7.46 ± 0.4
TGCAATGGAGCATAAAGTACATATAATTGTATTTTT [XGTACX_site7349] | 7.74 ± 0.47
TAGAATAATCCTTACACACACACACCCACGAATAAA [CACACA_site483] | 8.52
AATACAGAGGAAAATACACACGTATATATATAAATA [CACACA_site9125] | 7.66 ± 0.67
TTTTAAAAAAAAAAAAAAAAAAAAAAAAAAAAAAAA [CACACA_negctrl_site1343] | 8.31 ± 0.92
TGTTTTTTTATTTTCACACATAATCCAATTATACAT [CACACA_site6070] | 8.22 ± 0.55
TTTTAAAATTATTAGGTGCATATTTATTCTATATTT | 10 ± 0.35
AAAAAAAAAAGACACACACACACAAATACATACACA [CACACA_site6472] | 7.96 ± 0.13
TGAATAAAGATATATACACACATATAGGTATATATC [CACACA_site6870] | 7.49 ± 0.52
TGCTTATATTTTTATACACACAAGATACTTTTTGTT [CACACA_site1535] | 7.86 ± 0.59
ATCTAAATAAAGTTAACACACACATAATATATATAT [CACACA_site8055] | 8.99 ± 0.071
TTTTTTTCTTTTGGGAGTACCAACATTTTCACATAT [XGTACX_site1371] | 8.13 ± 0.6
CTATGCCCCATATAAACACACAAATAAAAAGAATAT [CACACA_site2681] | 8.14 ± 0.81
AAAAAAAAAAAATATGTACACACATATATAATACAT [CACACA_site8473] | 7.82 ± 0.29
TATATGTTTGAATATACACACAACATATTTATATAT [CACACA_site7832] | 7.47 ± 0.59
TTTTTTGTTAAAAGAGTGCAAATTTTTAAAGATTTG [GTGCAC_site9502] | 10.2 ± 0.3

Sequence | gcPBM binding intensity (ln)
AGTAATATAATATAAGCACACGTGTATTTATTTAGG [CACACA_site7921] | 8.21 ± 0.54
AAAAAAAAAAAAAAATACAAGCACATTTATATAAGC [GTGCAC_negctrl_site695] | 8.46 ± 0.62
AAATACATTAAAATGACATGCAGATATATATCAAAA [TGCATGCA_site477] | 7.8 ± 0.69
TATATATCAATATTTACACACATGCGCCCACATAAA [CACACA_site7185] | 8.38 ± 0.31
ATAGACAGCGCACAAACACACAAACACAGACCCCCA [CACACA_site4409] | 8.99 ± 0.099
TTTTTTTTATGGTACACACACGCGTATGGTTGCACG [CACACA_site1877] | 8.69 ± 0.39
TTATTTTTGTTCATAGTGCATAGAATTTATACATAT | 9.91 ± 0.33
TTGTAAATTTCTGGTTATATATTTTATGTATATGTT [CACACA_negctrl_site1443] | 7.6 ± 0.62
TTTTTTTCTTTTCAAACACACAATTGGTATATATCA [CACACA_site7542] | 7.74 ± 0.71
ATTTATTTATTGGCACGTACAAATTTGTGTTTTCCA [XGTACX_site6978] | 8.54 ± 0.53
AATTATATATTATAATGTACATATATATAACTATAC [XGTACX_site1865] | 7.76 ± 0.37
ATAAAGGAAATTACAAGTACAAATAAGATAAAATAA [XGTACX_site4514] | 7.86 ± 0.52
AAAGAAATGAAATATACACACATACATAAATACATA [CACACA_site6081] | 7.59 ± 0.39
TATAAAAAAAGAGGAGGGATGGTATACTTGTGGTTT [TGCATGCA_negctrl_site49] | 7.7 ± 0.94
ATATATTTAAACTACACACGCATATCTTAGAAATAA [CACACA_site1272] | 7.77 ± 0.54
TGTATATATAAACATGCACACGTGGTTGTATATATA [CACACA_site9078] | 9.25 ± 0.52
AATATTTTAAAAAAAAGTACATTATATATATATGTT [XGTACX_site8073] | 7.905 ± 0.049
TAGTATTAAAATATTTGTACTTATATGTATTATATA [XGTACX_site538] | 7.47 ± 0.25
TGTAGTCTGGAGAAGAGTACACAGTATCTGGTAACA [XGTACX_site2038] | 7.55 ± 0.52

Sequence | gcPBM binding intensity (ln)
AGAATTCGTTTAAAAAGTACATTCAATTTAATAATG [XGTACX_site6603] | 7.61 ± 0.32
AATAAAAAGGAACACACACACACACGGATATAAATA [CACACA_site7658] | 8.05 ± 0.51
TATTTTACATCTTCTCACATTTTATCACTTTTTAAA [CACACA_negctrl_site330] | 8.08 ± 0.45
TCATAGTATAGACACACACACACACGCATATAAATA [CACACA_site6915] | 8.01 ± 0.51
TCTTTGTAAATTTCTTGTACGTAAATTTTTTTTAGG [XGTACX_site7062] | 8.2 ± 0.33
AAAAAAAATGATAATATACACACTTATGGGAGAGCG [CACACA_site2516] | 7.59 ± 0.5
AGAAATAAGAAATATACACACATATAAATATAAATA [CACACA_site7342] | 7.49 ± 0.67
AGAATATGTTAAAAAAGTACATACTCTTTATATACG [XGTACX_site79] | 7.65 ± 0.45
TAAAAAAAAACATATACACACAAAAACGTACACATA [CACACA_site1354] | 7.98 ± 0.38
TTTTTTTCTCACAATCGTACATAAATACATATATAT [XGTACX_site3150] | 8.12 ± 0.54
TATATTTTTTAAACCACACACAATATAGAGTAGAAT [CACACA_site613] | 8.03 ± 0.57
TAATGTACATAAACCGCACACATATAAAAAAATAAA [CACACA_site2851] | 8.28 ± 0.092
AGGGGAAATAAAATATAAATTATCATATATATATAT [XGTACX_negctrl_site366] | 9.25 ± 0.31
CGTATATGACAAAAGCGTACGCATCAGCAGAAAAAT [XGTACX_site6248] | 8.3 ± 0.75
ATATATATATATATATGTACTGAATAAAGAACAAAA [XGTACX_site5400] | 9.37 ± 0.4
ATAAGGAAGGGATGCACACAAAAGGGTACATAAGAA [CACACA_site4006] | 8.36 ± 0.52
TTTGAATCCTTATATACACACATTATAAAATATTAT [CACACA_site6406] | 7.93 ± 0.39
TATTTGTAAATCGATACACACATATAGATTAATATA [CACACA_site6237] | 7.44 ± 0.35
TTATATTATACATACACACCCATATAATATGTTTTT [CACACA_site4636] | 8.01 ± 0.59
